Data from patent US20140193408A1 (Novartis, published 2014).

Assays:
[1] = target: T1, human SIRPalpha-Fc (R&D systems, UK) (human, UniProt P78324 31-373); test: SPR (BiaCORE), human SIRPalpha-Fc captured via Protein A, bivalent kinetic fitting model, KD1
T1 construct: Bought fusion protein; also called divalent recombinant SIRPalpha; immobilized human SIRPalpha; not shown: Fc part of the bought SIRPalpha-Fc

[2] = target: T1, human SIRPalpha-Fc (R&D systems, UK); test: SPR (BiaCORE), human SIRPalpha-Fc captured via Protein A, bivalent kinetic fitting model, kd1
human recombinant TNFα = target: T2, human recombinant TNFα (human, UniProt P01375 fragment); test: DELFIA, TNFα immobilized on microtiter plate, detection with biotinylated anti-human IgG and Streptavidin-Europium
Sequence of human recombinant TNFα (P01375 77-233 limits assumed): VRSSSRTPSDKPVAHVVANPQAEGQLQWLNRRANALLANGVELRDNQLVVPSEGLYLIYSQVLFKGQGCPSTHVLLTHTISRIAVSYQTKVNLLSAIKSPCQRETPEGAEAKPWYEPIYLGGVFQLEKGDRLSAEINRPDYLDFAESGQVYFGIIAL
T2 construct: also called TNFalpha; recombinant human TNFalpha

Kd [1]	koff [2]	binding result (human recombinant TNFα)	Binder
939 nM	0.109 s⁻¹		Example #9 CD47-Fc reference molecule (CD47 ECD fused to IgG1 N297A Fc) (Fc fusion) not shown
		no binding (tested: 0.01-1 µg/mL)	Example #2 non-extended Fusobody (CD47 C15G-[G4S]2 linker-CH1-IgG1 LALA Fc / CD47 C15G-[G4S]2 linker-CL human kappa) (Fc fusion, Complex of two heterodimers; tetravalent for CD47 region; also called huCD47C15G-human IgG1 LALA-hkappa) heavy: not shown light: not shown
